Data: patent US20250270341A1 (Alector, published 2025)

Columns and labels:
[1] = target: T1, Full length mouse CD98hc on CHO cells (mouse, UniProt P10852 1-526); experiment: FACS, 5 ug/ml
T1 construct: CHO cells stably overexpressing it; also called CHO-mouse CD98hc; CHO-mCD98hc
T1 sequence: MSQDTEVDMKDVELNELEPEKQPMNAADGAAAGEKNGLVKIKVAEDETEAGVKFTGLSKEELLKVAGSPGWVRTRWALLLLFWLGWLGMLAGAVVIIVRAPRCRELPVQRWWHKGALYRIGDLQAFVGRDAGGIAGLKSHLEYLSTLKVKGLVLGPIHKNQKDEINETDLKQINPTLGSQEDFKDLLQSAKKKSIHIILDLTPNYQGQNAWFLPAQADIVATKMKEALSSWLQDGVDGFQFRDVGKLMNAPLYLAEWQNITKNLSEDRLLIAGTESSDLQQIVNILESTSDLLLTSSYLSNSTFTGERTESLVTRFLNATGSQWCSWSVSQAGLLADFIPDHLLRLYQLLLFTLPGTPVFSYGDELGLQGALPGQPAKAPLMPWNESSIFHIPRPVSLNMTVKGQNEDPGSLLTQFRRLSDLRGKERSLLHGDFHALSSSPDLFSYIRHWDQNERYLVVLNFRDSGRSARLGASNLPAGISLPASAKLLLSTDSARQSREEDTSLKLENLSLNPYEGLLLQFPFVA
Protocol: To determine binding retention of 2+1 anti-CD98hc bispecific antibodies by FACS, antibodies were evaluated for binding to HCMEC/D3 cells (a cell line derived from human brain endothelial cells), overexpressing human and mouse CD98hc CHO cell lines, and parental CHO cells for non-specific binding. Cells were seeded in tissue culture plates (50,000 cells/well) and washed and resuspended in FACS buffer (PBS+2% BSA+1 mM EDTA). The 2+1 anti-CD98hc bispecific antibodies were then incubated with cells (5 μg/ml, 1 hr, on ice) and washed twice with FACS buffer. Cells were then incubated with allophycocyanin conjugated anti-mouse secondary antibody (Jackson Immunoresearch) (1:1000, 30 min, on ice) and then washed twice with FACS buffer. Next, cells were resuspended in FACS buffer supplemented with 0.5% propidium iodide (Thermo Fisher). Anti-CD98hc binding was then analyzed on the iQue flow cytometer (IntelliCyt) by measuring the Mean Fluorescent Intensity (MFI). FACS data are summarized below in Table 17, shown as MFI fold-change relative to isotype hIgG1 control.

muCD98hc ECD Avi-His = target: T2, muCD98hc ECD Avi-His (mouse, UniProt P10852 100-526); experiment: ELISA, 1 ug/ml
T2 construct: biotinylated on the Avi tag where captured on streptavidin; also called Mouse CD98-AVI-His; Mouse CD98hc-AVI-His
T2 sequence: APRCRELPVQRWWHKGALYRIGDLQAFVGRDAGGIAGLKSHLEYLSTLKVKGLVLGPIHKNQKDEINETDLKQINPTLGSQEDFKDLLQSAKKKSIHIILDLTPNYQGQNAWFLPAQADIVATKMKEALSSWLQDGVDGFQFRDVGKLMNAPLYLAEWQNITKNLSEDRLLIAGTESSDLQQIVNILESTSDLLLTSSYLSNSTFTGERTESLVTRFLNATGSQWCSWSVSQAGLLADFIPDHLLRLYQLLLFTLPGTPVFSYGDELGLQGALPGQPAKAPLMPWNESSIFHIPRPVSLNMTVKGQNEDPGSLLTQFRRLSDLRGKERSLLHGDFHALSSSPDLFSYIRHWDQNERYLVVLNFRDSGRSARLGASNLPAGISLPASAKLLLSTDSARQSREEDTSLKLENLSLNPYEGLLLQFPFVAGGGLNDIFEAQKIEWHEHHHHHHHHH
Protocol: (§1) To determine binding retention of reformatted 2+1 anti-CD98hc bispecific antibodies by ELISA, high binding ELISA plates (Thermo Fisher) were coated with streptavidin (1 μg/ml, Thermo Fisher) overnight at 4° C. Plates were then washed three times with phosphate buffered saline with 0.05% tween-20 (PBST) and incubated with block buffer (PBS+1% BSA, 1 h, room temperature). Plates were washed three times again with PBST and incubated with biotinylated human, cyno, and mouse CD98hc and an irrelevant antigen, human transferrin receptor (1 μg/ml, 1 h, room temperature). Plates were washed three times again with PBST and incubated with anti-CD98hc antibodies (1 μg/ml, 1 h, room temperature). Plates were washed three times again with PBST and incubated with a secondary detection antibody, anti-human horseradish peroxidase conjugated antibody (1:5000 dilution, 30 min, room temperature). Plates were washed three times one last time and incubated with TMB-ELISA Substrate Solution (Thermo Fisher) and then quenched with H₂SO₄. Anti-CD98hc binding was then analyzed by quantifying optical density at 450 nm (OD₄₅₀) using the SpectraMax M5 (Molecular Devices). The binding characteristics of the various 2+1 anti-CD98hc bispecific antibodies to CD98hc (human, cyno, mouse) and control human TfR are summarized below in Table 16, shown as fold-change relative to isotype hIgG.

[2] = target: T3, Human TfR-AVI-His (control) (human, UniProt P02786); experiment: ELISA, 1 ug/ml
T3 construct: control protein; also called Avi-His-tagged human TfR; human transferrin receptor
T3 sequence (P02786 89-760 limits assumed): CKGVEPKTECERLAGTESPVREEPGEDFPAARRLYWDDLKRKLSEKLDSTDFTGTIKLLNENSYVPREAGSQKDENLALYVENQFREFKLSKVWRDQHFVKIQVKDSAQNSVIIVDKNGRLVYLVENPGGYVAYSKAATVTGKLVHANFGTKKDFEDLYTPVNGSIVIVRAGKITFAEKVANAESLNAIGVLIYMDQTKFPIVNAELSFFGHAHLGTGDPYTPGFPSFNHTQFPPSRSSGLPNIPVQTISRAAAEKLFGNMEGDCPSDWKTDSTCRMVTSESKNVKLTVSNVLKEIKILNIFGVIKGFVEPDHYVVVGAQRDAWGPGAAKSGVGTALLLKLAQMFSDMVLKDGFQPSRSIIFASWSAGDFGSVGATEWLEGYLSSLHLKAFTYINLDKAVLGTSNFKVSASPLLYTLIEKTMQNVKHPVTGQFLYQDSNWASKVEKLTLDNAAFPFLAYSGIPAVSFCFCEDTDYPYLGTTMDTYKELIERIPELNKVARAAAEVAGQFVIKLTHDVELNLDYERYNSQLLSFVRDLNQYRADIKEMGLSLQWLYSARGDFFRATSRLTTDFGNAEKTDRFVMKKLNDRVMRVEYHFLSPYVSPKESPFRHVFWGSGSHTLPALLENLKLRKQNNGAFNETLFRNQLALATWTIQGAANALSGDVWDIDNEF
Protocol: as §1

MFI fold-change relative to isotype hIgG1 [1]: 0.6
ELISA fold-change relative to isotype hIgG (muCD98hc ECD Avi-His): 1.3
ELISA fold-change relative to isotype hIgG [2]: 1.3
B1: CD98hc.04.047 (2+1 bispecific antibody) (bispecific antibody)
heavy 1: EVRLLESGGGLVQPGGSLRLSCAASGFTFSNYAMGWVRQAPGKGLEWVSAISGSGGSTYYADSVKGRFTTSRDDSKNALYLQMNSLRAEDTAVYYCARGGPGWYAADVWGQGTTVTVSSASTKGPSVFPLAPSSKSTSGGTAALGCLVKDYFPEPVTVSWNSGALTSGVHTFPAVLQSSGLYSLSSVVTVPSSSLGTQTYICNVNHKPSNTKVDKKV[here human IgG1 Fc with changes without letters]GGGGSGGGGSGGGGSEVQLQESGPSLVKPSQTLSLTCSVTGDSITSGYWNWIRKFPGNKLEYMGYISYSGSTYYNPSLKGRVSITRDTSKNQYYLQLNSVTTEDTATYYCQRHVIYDYTWFAYWGQGTLVTVSAGGSEGKSSGSGSESKSTGGSQIVLTQSPAIMSASPGEKVTISCSASSSVGYMYWLQQKPGSSPKPWIYRTSILASGVPARFSGSGSGTSYSLTISSMEAEDAATYYCQQYQSYPLTFGAGTKLELK
heavy 2: EVRLLESGGGLVQPGGSLRLSCAASGFTFSNYAMGWVRQAPGKGLEWVSAISGSGGSTYYADSVKGRFTTSRDDSKNALYLQMNSLRAEDTAVYYCARGGPGWYAADVWGQGTTVTVSS[here human IgG1 constant region with changes without letters]
light: DIQMTQSPSSLSASVGDRVTITCRASQSISSYLNWYQQKPGKAPKLLIYAASSLQSGVPSRFSGSGSGTDFTLTISSLQPEDFATYYCQQADLPAFAFGGGTKVEIKRTVAAPSVFIFPPSDEQLKSGTASVVCLLNNFYPREAKVQWKVDNALQSGNSQESVTEQDSKDSTYSLSSTLTLSKADYEKHKVYACEVTHQGLSSPVTKSFNRGEC

MFI fold-change relative to isotype hIgG1 [1]: 2.1
ELISA fold-change relative to isotype hIgG (muCD98hc ECD Avi-His): 2
ELISA fold-change relative to isotype hIgG [2]: 2
B2: CD98hc.04.065 (2+1 bispecific antibody) (bispecific antibody)
heavy 1: EVRLLESGGGLVQPGGSLRLSCAASGFTFSNYAMGWVRQAPGKGLEWVSAISGSGGSTYYADSVKGRFTTSRDDSKNALYLQMNSLRAEDTAVYYCARGGPGWYAADVWGQGTTVTVSSASTKGPSVFPLAPSSKSTSGGTAALGCLVKDYFPEPVTVSWNSGALTSGVHTFPAVLQSSGLYSLSSVVTVPSSSLGTQTYICNVNHKPSNTKVDKKV[here human IgG1 Fc with changes without letters]GGGGSGGGGSGGGGSEVQLQESGPSLVKPSQTLSLTCSVTGDSITSGYWNWIRKFPGNKLEYMGYISYSGRTYYNPSLKSRVSITRDTSKNQYYLQLNSVTTEDTATYYCQRHVIYDYTWFAYWGQGTLVTVSAGGSEGKSSGSGSESKSTGGSQIVLTQSPAIMSASPGEKVTISCSASSSVHYMYWFQQKPGSSPKPWIYRTSILASGVPDRFSGSGSGTSYSLTISSMEAEDAATYYCQQYQSYPLTFGAGTKLELK
heavy 2: EVRLLESGGGLVQPGGSLRLSCAASGFTFSNYAMGWVRQAPGKGLEWVSAISGSGGSTYYADSVKGRFTTSRDDSKNALYLQMNSLRAEDTAVYYCARGGPGWYAADVWGQGTTVTVSS[here human IgG1 constant region with changes without letters]
light: B1 light

Each block holds one binder with its values, some of them ahead of it.
